Measurements published in PubChem BioAssay AID686979 (National Center for Advancing Translational Sciences (NCATS), 2013).
Screen size: about 420,000 compounds; about 50,000 (12%) were called active. Inconclusive results, whose numbers are uncertain, are shown with a selection of clear calls. Calls follow the shape of the dose curve; as a rule, active = well fitted inhibition curve with a large enough effect; inconclusive = small, poorly fitted or top-dose-only effect; inactive = flat fitted curve, though single readings scatter. Potencies of inconclusive entries are left out as doubtful fits.

Assay: qHTS for Inhibitors of human tyrosyl-DNA phosphodiesterase 1 (TDP1): qHTS in cells in presence of CPT; also: nearly all actives have a fitted effect of over 55% in size
Conditions: chicken DT40 Tdp1-/-;hTDP1 cells + 20 nM CPT, ATP luminescence, 48 h; activity change, negative = growth inhibition: at 46.2 µM (top of the series) unless noted
Procedure, shortened: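 Chicken DT40 Tdp1-/- cells complemented with human TDP1, 400 cells/well, exposed to compounds plus 20 nM camptothecin for at least 48 h at 37 C; viability read as ATP content by CellTiter-Glo luminescence.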
% is scaled to controls: 0 for no effect and ±100 for the full control effect; potency is read from the fitted curve at half-maximal effect; tags tell the direction and shape of the fitted curve.

| SMILES | Potency | activity change, negative = growth inhibition |
| --- | --- | --- |
| C=CCc1c(C)nc(SC)nc1Nc1ccc(C)cc1 | active: 9.2 µM |  |
| CCOC(=O)C1CCN(S(=O)(=O)c2ccc3c(c2)NC(=O)C(C)C(=O)N3)CC1 (stereo not given) | inactive |  |
| CC(=O)c1cnn(-c2c(Cl)cc(Cl)cc2Cl)c1C | active: 16.4 µM |  |
| Cc1ccc(-c2nn(-c3ccccc3)c3[nH]c(=O)c(CNCc4ccccc4)cc23)cc1 | inconclusive [inhibitor, single point] |  |
| CC(C)[C@H](NS(=O)(=O)c1ccccc1)C(=O)OCn1nnc2ccccc2c1=O |  | inactive: -20% |
| CC1CCN(C(=O)CSc2nnc(-c3ccco3)n2N)CC1 |  | inactive: 1.45% |
| COc1ccc(/C=C2\SC(=S)N(CCC(=O)N(CCO)c3ccccc3)C2=O)cc1OC | inconclusive [inhibitor, single point] |  |
| CC(C)c1ccc(NC2CCCN(C(=O)CCn3cnnn3)C2)cc1 (stereo not given) | inconclusive [inhibitor, single point] |  |
| COc1ccc(/C(C)=N/NC(=O)CNC(=O)C2COc3ccccc3O2)c(OC)c1 (stereo not given) |  | inconclusive: -36.2% [inhibitor] |
| O=c1c(-c2ccccc2)nc2cnc(N3CCOCC3)nc2n1-c1ccccc1 |  | inactive: 3.7% |
| O=C1CC/C=C\C[C@@H](CC(=O)N(CCO)Cc2ccccc2)C(=O)N[C@H](Cc2ccccc2)CO1 |  | inactive: -26.1% |
| Cc1oc(-c2ccc(Cl)cc2)cc1C(=O)N1CCC1(C)C(=O)O (stereo not given) | active: 29.1 µM |  |
| CC1(c2ccccc2)NC(=O)N(CC(=O)Nc2ccc(Cl)c(S(=O)(=O)N3CCCCC3)c2)C1=O (stereo not given) | inconclusive [inhibitor, partial curve] |  |
| N#CC1=C(N)N(c2ccc(F)cc2)C2=C(C1c1ccc(O)cc1)S(=O)(=O)CC2 (stereo not given) | active: 20.6 µM |  |
| CN(C)c1ncc(S(=O)(=O)c2ccc(Cl)cc2)c(-c2ccccc2)n1 | inconclusive [inhibitor, single point] |  |
| CCCCN(C)c1c(C)nc2ccc(C(=O)N3CCN(C(C)=O)CC3)cn12 | inconclusive [inhibitor, single point] |  |
| O=C(O)CCC(=O)N1N=C(c2cccs2)CC1c1ccc(Br)cc1 (stereo not given) |  | inactive: -9.44% |
| CCN(CC)C(=O)Oc1ccc(Cl)c2cccnc12 |  | inactive: 4.03% |

| SMILES | Potency | activity change, negative = growth inhibition |
| --- | --- | --- |
| COC(=O)[C@]12CCCCC=C1N(Cc1ccccc1)C(=O)[C@H](CC(=O)N1CCCC1)C2 | inconclusive [inhibitor, single point] |  |
| CC1=C(C(=O)Nc2ccccc2C)C(c2cccnc2)n2nc(SCc3ccccc3F)nc2N1 (stereo not given) |  | inactive: -17.1% |
| Cc1ccc(-c2nc3cc(Br)cnc3nc2-c2ccc(C)cc2)cc1 | active: 14.6 µM |  |
| O=[N+]([O-])c1cc([N+](=O)[O-])c(Oc2cc(F)cc(F)c2F)cc1NN1CCCCC1 | inconclusive [inhibitor, single point] |  |
| COc1ccc2cc3cc(C(=O)NCCc4ccc(OC)c(OC)c4)oc3nc2c1 | active: 11.6 µM |  |
| COc1cc(C2Nc3cccc4cccc(c34)N2)cc(OC)c1OC(C)=O | inconclusive [inhibitor, single point] |  |
| COC(=O)c1ccc(NC(=O)C2CCN(C(=O)c3ccc(F)cc3)CC2)cc1 | inconclusive [inhibitor, partial curve] |  |
| O=C1OC[C@H]2CCCN2C(=O)[C@@H](CC(=O)N(CCO)Cc2ccccc2)C/C=C\C[C@H]1Cc1ccc(F)cc1 | active: 13 µM |  |
| CCOc1cc(/C=N/NS(=O)(=O)c2ccccc2)ccc1OS(=O)(=O)c1ccc(C)cc1 | inconclusive [inhibitor, single point] |  |
| CCc1ccc(C(=O)CSc2nnc(C)c(=O)[nH]2)cc1 | inconclusive [inhibitor, single point] |  |
| O=c1cc(Nc2ccc3c(c2)OCO3)[nH]c(=O)n1-c1ccc(Br)cc1 | inconclusive [inhibitor, single point] |  |
| CCCCn1nc2cc(C(=O)NCc3ccc(C(F)(F)F)cc3C(F)(F)F)ccc2c1OCC | inconclusive [inhibitor, single point] |  |
| COc1cc(N(C)C)c([N+](=O)[O-])cc1C(=O)N1CCOCC1 |  | inactive: -1.16% |
| Cn1c(COc2ccc(Br)cc2)nnc1SC1CCc2ccccc2C1=O (stereo not given) | inconclusive [inhibitor, single point] |  |
| Cc1occc1C(=O)NNC(=S)Nc1cccc([N+](=O)[O-])c1 | inconclusive [inhibitor, single point] |  |
| CC(CNc1ccccc1O)C(=O)O (stereo not given) | inconclusive [inhibitor, single point] |  |
| COc1cccc(-c2coc3c(C)c4oc(=O)c(CCC(=O)O)c(C)c4cc23)c1 | inactive |  |
